{"source": "PubChem BioAssay (NCATS)", "note": "The inconclusive results got no clear call from the source; some entries with a clear call stand among them for comparison. Where the call is inconclusive, the potency comes from a doubtful curve fit. The source made the active and inactive calls. Calls follow the shape of the dose curve; as a rule, active = well fitted curve in the direction sought with a large enough effect; inconclusive = small, poorly fitted or top-dose-only effect, or another doubt; inactive = no such curve, though single readings can be large; an effect the other way counts as inactive or inconclusive. Potency is read from the fitted curve at half-maximal effect; tags tell the direction and shape of the fitted curve.", "data": [{"experiment": "qHTS of pediatric cancer cell lines to identify multiple opportunities for drug repurposing: Primary screen for LAN-5 cells (AID 1347100);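 as to activity change, negative = cytotoxic: plate controls were DMSO neutral control for no effect and bortezomib positive control for full effect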", "conditions": "LAN-5 neuroblastoma viability, CellTiter-Glo luminescence, 48 h; activity change, negative = cytotoxic: at 46 µM (top of the series)", "method_in_brief": "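Viability after 48 h compound treatment at 37C, 500-1,000 cells/well, read as ATP luminescence with CellTiter-Glo. Primary screens used 11-point (MIPE, 0.78 nM-46 µM) or 8-point (NPC, 0.59 nM-46 µM) final concentrations; follow-up screens used 11-point dilutions.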", "values": [{"smiles": "CN(C)CCOc1ccc(C(=C(CCCl)c2ccccc2)c2ccccc2)cc1", "activity change, negative = cytotoxic": "inactive: -27.9%"}, {"smiles": "CCOC(=O)N1CCN([N+]([O-])=NOc2ccc([N+](=O)[O-])cc2C#N)CC1", "Potency": "active: 4.18 µM"}, {"smiles": "C[C@H](NC(=O)C(C#N)=Cc1cccc(Br)n1)c1ccccc1", "Potency": "active: 16.6 µM"}, {"smiles": "C#Cc1cccc(Nc2ncnc3cc(OCCOC)c(OCCO)cc23)c1", "Potency": "active: 0.264 µM"}, {"smiles": "COc1cc2ncnc(Nc3cccc(Cl)c3)c2cc1OC", "Potency": "inconclusive: 37.2 µM [cytotoxic, single point]"}]}, {"experiment": "qHTS of pediatric cancer cell lines to identify multiple opportunities for drug repurposing: Primary screen for BT-12 cells (AID 1347101); also: nearly all actives have a fitted effect of over 25% in size;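 as to activity change, negative = cytotoxic: plate controls were DMSO for no effect and bortezomib positive control for full effect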", "conditions": "BT-12 viability, CellTiter-Glo luminescence, 48 h; series mostly up to 57.3 µM; activity change, negative = cytotoxic: at the top concentration", "method_in_brief": "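Cells (500-1,000/well) rested 5 h, then received compounds for 48 h; metabolically active cells were measured by CellTiter-Glo luminescence. Final concentrations spanned up to 46 µM (MIPE, 11-point) or 0.59 nM-46 µM (NPC, 8-point) in primary screens, 11-point in follow-ups.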", "values": [{"smiles": "CCOc1ccc(NC(C)=O)cc1", "activity change, negative = cytotoxic": "inactive: -4.53%"}, {"smiles": "COc1cc(C=CC(=O)CC(=O)C=Cc2ccc(O)c(OC)c2)ccc1O", "Potency": "active: 44.4 µM"}, {"smiles": "CNC(=O)c1ccccc1Nc1nc(Nc2ccc(N3CCOCC3)cc2OC)ncc1Cl", "Potency": "inconclusive: 7.69 µM [cytotoxic, partial curve]"}, {"smiles": "Cc1cc(NC(=O)Nc2ccc(N(C)C)cc2)c2cc(F)cc(F)c2n1", "Potency": "inconclusive: 19.3 µM [cytotoxic, partial curve]"}, {"smiles": "O=C1OC2(c3ccccc31)c1cc(Br)c(O)c(Br)c1Oc1c2cc(Br)c(O)c1Br", "activity change, negative = cytotoxic": "inactive: -5.17%"}, {"smiles": "CC1=C(C/C=C(\\C)CCC[C@H](C)CCC[C@H](C)CCCC(C)C)C(=O)c2ccccc2C1=O", "activity change, negative = cytotoxic": "inactive: -0.926%"}, {"smiles": "CC1C(=O)OC2C(O)C34C5CC(C(C)(C)C)C36C(OC(=O)C6O)OC4(C(=O)O5)C12O", "note": "(stereo not drawn)", "Potency": "inconclusive: 15.3 µM [cytotoxic, partial curve]"}, {"smiles": "CCC[C@H](Nc1nc(-c2ccc(NC(=O)NCC)c(OC)c2)ncc1C)c1cccnc1", "Potency": "active: 0.0109 µM"}]}]}
